# About 14,000 (4.5%) of roughly 310,000 compounds showed an effect of 50% or more. Effects have a minus sign here. This is one part of the list.
# Target: human ether-à-go-go-related gene (hERG) potassium channel (human, UniProt Q12809)
# Test: primary screen, population patch clamp on CHO cells stably expressing hERG
# 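Note: peak tail current of the secondary pulse compared with the same well before compound.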
# human ether-à-go-go-related gene (hERG) potassium channel, sequence (Q12809 whole entry, looked up): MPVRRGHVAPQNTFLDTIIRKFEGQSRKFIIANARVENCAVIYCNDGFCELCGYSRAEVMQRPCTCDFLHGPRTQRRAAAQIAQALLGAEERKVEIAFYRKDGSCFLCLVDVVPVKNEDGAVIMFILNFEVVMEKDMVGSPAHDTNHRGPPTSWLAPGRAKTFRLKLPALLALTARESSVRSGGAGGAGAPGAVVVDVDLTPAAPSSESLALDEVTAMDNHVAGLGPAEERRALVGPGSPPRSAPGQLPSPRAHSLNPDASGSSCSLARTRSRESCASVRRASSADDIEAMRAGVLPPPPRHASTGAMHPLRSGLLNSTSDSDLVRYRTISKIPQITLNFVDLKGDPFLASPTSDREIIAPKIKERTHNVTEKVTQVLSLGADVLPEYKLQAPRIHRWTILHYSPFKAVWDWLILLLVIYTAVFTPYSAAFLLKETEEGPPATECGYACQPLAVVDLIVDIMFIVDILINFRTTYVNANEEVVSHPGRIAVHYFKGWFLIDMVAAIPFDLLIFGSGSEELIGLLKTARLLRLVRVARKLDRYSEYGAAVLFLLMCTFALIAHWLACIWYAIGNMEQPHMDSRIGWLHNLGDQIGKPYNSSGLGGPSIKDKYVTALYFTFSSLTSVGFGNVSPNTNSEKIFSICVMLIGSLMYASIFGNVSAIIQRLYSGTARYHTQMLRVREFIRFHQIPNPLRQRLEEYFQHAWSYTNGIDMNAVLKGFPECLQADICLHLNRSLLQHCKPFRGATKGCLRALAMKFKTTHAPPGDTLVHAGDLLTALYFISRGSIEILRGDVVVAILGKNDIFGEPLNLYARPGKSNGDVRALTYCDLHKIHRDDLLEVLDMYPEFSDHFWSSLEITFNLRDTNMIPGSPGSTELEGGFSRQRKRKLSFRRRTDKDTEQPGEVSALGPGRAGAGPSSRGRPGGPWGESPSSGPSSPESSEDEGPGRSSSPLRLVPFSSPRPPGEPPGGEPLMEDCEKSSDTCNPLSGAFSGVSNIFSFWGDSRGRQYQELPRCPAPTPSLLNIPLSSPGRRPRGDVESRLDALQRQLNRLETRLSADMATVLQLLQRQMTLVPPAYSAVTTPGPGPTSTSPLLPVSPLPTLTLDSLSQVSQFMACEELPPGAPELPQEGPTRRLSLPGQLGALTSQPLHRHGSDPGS
row,SMILES,"hERG current change (%, negative = inhibition) at 10uM [%]"
1,COC(=O)COc1cc(Br)c(/C=C2/SC(=O)N(CC(=O)N3CCCC3)C2=O)cc1OC,-0.455
2,Cc1ccc(NC(=O)C2C3CCC(O3)C2C(=O)O)cc1Cl (stereo not shown),4.35
3,COC(=O)[C@H](CC(C)C)NC(=O)c1cc2c(cn1)[nH]c1ccccc12,2.43
4,CC(C(=O)Nc1ccc(Cl)cc1)c1ncc(C(F)(F)F)cc1Cl (stereo not shown),-2.32
5,Cc1cc2cc(CNC(=O)CCC(=O)O)ccc2n1C,14.7
6,O=C(CNC(=O)c1cccs1)NCC(=O)OCc1ccc(Cl)cc1,-17.5
7,COC(=O)C1=C(c2cc3ccccc3s2)C[C@@H]2CC[C@H]1N2C(=O)NCCS(C)=O (stereo partly shown),5.66
8,CCc1ccc(OCCNC(=O)c2cccs2)cc1,-18
9,O=c1cc(-c2ccccc2)nc2nc(COc3ccccc3)[nH]n12,-3.23
10,COC(=O)/C(C#N)=C/N(C)C,14.5
11,COc1ccc(C(=O)NCC(=O)N/N=C/c2c(C)[nH]c3ccccc23)cc1OC,4.93
12,COC(=O)C1=C(c2cc3ccccc3o2)C[C@@H]2CC[C@H]1N2C(=O)NCc1ccc(C(F)(F)F)cc1,9.52
13,O=C(O)c1ccc(Oc2ccc(C(F)(F)F)cn2)cc1,17.5
14,CCOc1ccc(S(=O)(=O)N2CCN(C(=S)NCc3ccco3)CC2)cc1,-32.4
15,O=[N+]([O-])c1cccc(/C([O-])=C(/C(=S)Nc2ccccc2)[n+]2ccccc2)c1,-12.4
16,Cc1nc(SCCC(=O)O)c2cc(-c3ccccc3)sc2n1,5.56
17,Fc1ccc(N=Cc2ccc[nH]2)cc1,13.9
18,Cc1ccc(S(=O)(=O)N2c3ccccc3CC2C)cc1 (stereo not shown),13.4
19,Cc1cccc(CCNS(=O)(=O)c2cc3c(cc2C)NC(=O)CO3)c1,-34.4
20,OC1(C#CCN2CCOCC2)CCCCC1,15.4
21,Cc1ccsc1C(=O)OCC(=O)NC1CCS(=O)(=O)C1 (stereo not shown),9.74
22,Cc1nn(S(=O)(=O)c2ccc(C(C)C)cc2)c(C)c1S(=O)(=O)N1CCOCC1,5.24
23,O=C(Nc1ccc(Cl)cn1)c1ccccc1[N+](=O)[O-],-6.4

row,SMILES,"hERG current change (%, negative = inhibition) at 10uM [%]"
1,Oc1ccc(C[C@@H]2CNC(=S)N2CCc2cc(C(F)(F)F)cc(C(F)(F)F)c2)cc1,2.28
2,CCCCn1c(=S)[nH]c2ccc(N3CCOCC3)cc2c1=O,6.93
3,COCCCNC(=O)CSC1=Nc2ccccc2C2=NC(c3ccccc3)C(=O)N12 (stereo not shown),-22.2
4,O=C(N/N=C/c1cccs1)c1cccc(NC(=O)c2ccccc2Cl)c1,-11.2
5,Cc1nc2c(C)cccn2c1/C(O)=C1\C(=O)C(=O)N(CCN2CCOCC2)C1c1cccs1 (stereo not shown),11.6
6,CCN(CC)c1ccc(NC(=O)CSc2nc3ccccc3c(=O)n2-c2cc(S(=O)(=O)N(C)C)ccc2C)cc1,2.52
7,C=C(C)C1Cc2nc(N)nc(C)c2C1 (stereo not shown),10.8
8,CC(=O)N(CC1CCCO1)C1(C(=O)NC2CCCC2)CCCCC1 (stereo not shown),7.61
9,Cc1cc(NC(=O)CSCCO)no1,8.03
10,O=C(NC12CC3CC(CC(C3)C1)C2)C1CC(=O)N(c2ccccc2)C1 (stereo not shown),4.54
11,CSc1ccccc1C(=O)Nc1cccc([N+](=O)[O-])c1C,-18.6
12,O=C(COC(=O)c1ccco1)NCc1ccco1,13
13,Cc1cc(SCC(=O)c2cc3ccccc3o2)nc2ccccc12,20.1
14,Cc1ccc(NC(=O)CCC(=O)c2cccs2)c(O)c1,6.76
15,COc1ccccc1-c1cn(-c2ccccc2)c(=S)[nH]1,10.9
16,CC(C)CC(OC(=O)c1ccco1)C(=O)NC1CCCCC1 (stereo not shown),-2.33
17,CCOc1ccc(/C=N/N(C)c2ccccc2)cc1OC,15.8
18,O=C(NCc1ccccc1F)C1CCN(C(=O)Nc2ccc(F)cc2)CC1,0.784
19,CN(C)/N=C1\CCS(=O)(=O)c2sccc21,3.93
20,COc1ccc(S(=O)(=O)N2CCCOC2CNC(=O)C(=O)NCc2ccccn2)cc1 (stereo not shown),-1.08
21,O=C(Cc1ccc(S(=O)(=O)N2CCOCC2)s1)Nc1ccccc1Br,6.02
22,CCOc1cccc(C(c2c(C)n(C)n(-c3ccccc3)c2=O)c2c(C)n(C)n(-c3ccccc3)c2=O)c1OC,19.3
23,CC(C)CCOC(=O)C(C)Sc1n[nH]c(=O)[nH]c1=O (stereo not shown),-2.03

row,SMILES,"hERG current change (%, negative = inhibition) at 10uM [%]"
1,COC(=O)c1sc(NC(=O)c2c(F)cccc2F)c(C#N)c1C,8.78
2,COC(=O)CCN1CCN(S(=O)(=O)c2ccc3c(c2)OCCO3)CC1,12.9
3,Cc1ccc(-c2nn(-c3ccccc3)cc2CO)cc1,-0.727
4,CCCOC(=O)NC(CC)COC(=O)Nc1cccc(C)c1C (stereo not shown),0.265
5,O=C(O)c1ccc(S(=O)(=O)N2CCc3ccccc3C2)cc1,20.1
6,O=C(O)c1ccc(CSCc2c(F)cccc2Cl)o1,0.513
7,Cc1cccc2c(C(=O)Nn3cnnc3)cc(-c3ccccc3Cl)nc12,25.8
8,Oc1ccccc1/C=N/Nc1nc2ccccc2o1,7.33
9,CCOC(=O)CNC(=O)CSc1nc(C)cc(C)c1C#N,9.49
10,O=C(COc1ccc(OCc2ccccc2)cc1)NN=C1CCCC1,13.7
11,C=CCNC(=O)c1cnc(-c2ccccc2)nc1-c1ccccc1,16.3
12,COc1ccc(CCN(C(=O)c2cccc(F)c2)C2CC(=O)N(c3ccccc3)C2=O)cc1 (stereo not shown),-38.5
13,O=C(O)c1ccc(/C=N/N2CCN(C3c4ccccc4-c4ccccc43)CC2)cc1,12.1
14,CCN(CC)S(=O)(=O)c1cccc(C(=O)N/N=C/c2ccc(OC)c(O)c2)c1,3.55
15,CCOC(=O)Cc1csc(NC(=O)COc2cccc(C)c2)n1,12.5
16,CCOC(=O)c1c(C)[nH]c(C(=O)COc2ccc3c(c2)OCO3)c1C,5.31
17,CCC(=O)Nc1ccc2c(c1)ncn2C,48.6
18,CS(=O)(=O)N(CC(=O)N1CCOCC1)c1ccc(Cl)cc1,20.7
19,CC(C)(C)NC(=O)NC(=O)CSc1ccc(S(=O)(=O)N2CCOCC2)cn1,-11.6
20,COc1ccccc1/C=N\NC(=O)c1ccc(COc2ccc(C)c(C)c2)o1,8.48
21,c1coc(-c2ccnc3ncnn23)c1,8.93
22,Nc1nc2ccccc2cc1-c1cccs1,-1.47
23,Cc1ccc(C)c(NC(=O)C2=CCN(S(=O)(=O)c3ccc(F)cc3)CC2)c1,11

row,SMILES,"hERG current change (%, negative = inhibition) at 10uM [%]"
1,O=C1NC(=O)N(c2ccccc2)C(=O)/C1=C\c1ccc([N+](=O)[O-])s1,0.575
2,COc1cccc(N2CCN(c3ccc4nnc(CCC(=O)Nc5ccc(F)cc5)n4n3)CC2)c1,0.895
3,CCc1c(C)nc2ncnn2c1N1CCCC(C(=O)NCc2cccs2)C1 (stereo not shown),-19.1
4,CN1CCN(c2ccc(NC(=O)c3ccco3)cc2Cl)CC1,-16.8
5,CN(CC(=O)Nc1ccccc1Cl)C(=O)CCSc1ccc(F)cc1,-21.1
6,COc1ccc(OC)c(Nc2nc(-c3sc(NC(=O)c4ccccc4)nc3C)cs2)c1,11.2
7,COc1ccc(C(=O)Oc2cc3c4c(c2)C(C)=CC(C)(C)N4C(=O)C3=O)cc1OC,-2.65
8,CC(C)c1ccc(NC(=O)C2CSC3(C)CCC(=O)N23)cc1 (stereo not shown),2.4
9,Cc1cc(C)c(C#N)c(N2CCN(c3ccccc3)CC2)n1,5.03
10,O=C(O)c1cccnc1Br,9.22
11,CCn1c(-c2csc3ccccc23)n[nH]c1=S,2.39
12,NNC(=O)CNC(c1ccccc1)c1cc(Br)ccc1NC(=O)c1cccc(Cl)c1 (stereo not shown),-25.2
13,Cc1ccc(-n2nc(C)c3c(C)c(CCC(=O)NC(C)c4ccccc4)c(C)nc32)cc1 (stereo not shown),13.5
14,Cc1cccc(C(=O)N/N=C/c2ccccn2)c1,-8.78
15,Cc1ccc(C)c(S(=O)(=O)N2CCN(C(=O)c3ccccc3Cc3ccccc3)CC2)c1,1.31
16,O=C1NC2=C(C(=O)OC2)C(c2ccc(OC(F)(F)F)cc2)N1 (stereo not shown),3.82
17,COc1cccc(Nc2ccc(N3CCCCC3)cc2)c1OC,-7.84
18,CCOC(=O)c1ccc(NC(=O)C2CCCN(c3cnccn3)C2)cc1 (stereo not shown),-11.7
19,CC1(C)OC(=O)N(CCc2ccccc2)C1(C)O (stereo not shown),-8.75
20,Fc1ccc2[nH]c3c(N4CCc5ccccc5C4)ncnc3c2c1,19.3
21,O=C(NCc1ccco1)c1cc2nc(-c3ccc4c(c3)OCO4)cc(C(F)(F)F)n2n1,-14.2
22,Cc1cccc(NC(=O)c2cccc(NC(=O)Cc3cccs3)c2)c1,4.72
